Assay results from PubChem BioAssay AID624296 (National Center for Advancing Translational Sciences (NCATS), 2012).
The whole screen tested about 350,000 compounds, of which about 9,900 (2.8%) were called active. The shares of active, inactive and inconclusive entries below differ from those in the screen. The call rests on the fitted dose curve; in most records, active means well fitted activation curve with a large enough effect; inconclusive means small, poorly fitted or top-dose-only effect; inactive means no such curve, though single readings can be large or run the other way. Potencies of inconclusive entries are left out as doubtful fits.

Experiment: A quantitative high throughput screen for small molecules that induce DNA re-replication in MCF 10a normal breast cells. Further: nearly all actives have a fitted effect of over 50% in size.
Details: MCF 10A DNA re-replication, Hoechst nuclear intensity, 48 h; series mostly up to 46.1 µM
Potency means the concentration at half of the fitted maximal effect; tags describe the fitted curve by direction and shape.

Q: With `Cc1ccc(S(=O)(=O)NCC(=O)OCCOc2cccc(Cl)c2)cc1` as the compound, how does the Potency read?
A: Its Potency is “inactive”.

Q: For `O=C(O)[C@H](Cc1ccccc1)NC(=O)N1CCC(Cc2ccccc2)CC1`, which Potency is on record?
A: The Potency was “inactive”.

Q: Which Potency does the source give for `COc1cc(OC)cc(C(=O)N[C@H](C(=O)Nc2ccc(F)cc2F)C(C)C)c1` here?
A: The Potency was inconclusive [activator, single point].

Q: With `CCc1nnc(NC(=O)CSc2ccc(-c3nc4ccc(C)cc4[nH]3)cn2)s1` as the compound, how does the Potency read?
A: The Potency was inconclusive [activator, single point].

Q: Which Potency does the source give for `COc1cc(C#Cc2c(-c3cncn3C)n(C)c3ccc(-c4cnc(OC)nc4)cc23)cc(OC)c1` here?
A: The Potency was inconclusive [activator, full curve, poor fit].

Q: With `Nc1ccccc1C(=O)NCCCN1CCN(c2cccc(Cl)c2)CC1` as the compound, how does the Potency read?
A: Its Potency is inconclusive [activator, full curve, poor fit].

Q: Which Potency does the source give for `O=C(Nc1ccccc1)c1nc[nH]c1C(=O)NCCNC(=O)c1[nH]cnc1C(=O)Nc1ccccc1` here?
A: Its Potency is inconclusive [activator, single point].

Q: Which Potency does the source give for `Cc1onc(-c2ccccc2)c1C(=O)NC(=S)NNC(=O)c1ccc(O)cc1` here?
A: Its Potency is “inactive”.

Q: For `CCOc1ccc(C(O)(c2ccccc2OC)C(CN2CCCC2)c2ccccc2)cc1` (stereo unspecified), which Potency is on record?
A: Its Potency is inconclusive [activator, single point].

Q: Which Potency does the source give for `OCC1(CCOc2ccccc2)CCN(CC2=Cc3cc(Cl)ccc3OC2)CC1` here?
A: The Potency was inconclusive [activator, single point].

Q: For `COc1ccc(F)cc1C(=O)C1CCCN(Cc2cccn2-c2ccccn2)C1` (stereo unspecified), which Potency is on record?
A: Its Potency is inconclusive [activator, partial curve].

Q: For `COc1ccc(Nc2nc(N)c(C(=O)c3ccc(OC)cc3)s2)cc1`, which Potency is on record?
A: Its Potency is inconclusive [activator, full curve, poor fit].

Q: For `COc1ccc(NC(=O)c2cn(C)c(=O)c3cc(OC)c(OC)cc23)c(OC)c1`, which Potency is on record?
A: Its Potency is “inactive”.

Q: For `COc1cc(CNCCN(C)C)c(Br)cc1OC1CCCC1`, which Potency is on record?
A: Its Potency is inconclusive [activator, partial curve, poor fit].

Q: For `Cc1ccc2c(c1)c1c(n2CC(O)CN2CCCCC2C)CCCC1` (stereo unspecified), which Potency is on record?
A: Its Potency is inconclusive [activator, partial curve, poor fit].

Q: Which Potency does the source give for `CC1(C)Cc2c(sc3ncnc(NN)c23)CO1` here?
A: Its Potency is “inactive”.

Q: Which Potency does the source give for `Cn1c(C(=O)O)c(CC(=O)N2CCC(Cc3ccccc3)CC2)c2ccccc21` here?
A: The Potency was inconclusive [activator, single point].

Q: With `Nc1ccc(C(=O)Nc2ccc(Nc3ccncc3)cc2)cc1` as the compound, how does the Potency read?
A: Its Potency is “inactive”.

Q: For `O=C(CSc1nnc(SCc2ccc(Cl)cc2)s1)N/N=C/c1ccccc1Cl`, which Potency is on record?
A: The Potency was inconclusive [activator, full curve, poor fit].

Q: For `COc1ccc(C(=O)c2cnc3cc4c(cc3c2C)OCO4)cc1`, which Potency is on record?
A: The Potency was “inactive”.

Q: Which Potency does the source give for `Cn1c2c(c3ccccc31)CCN(CCCCN1CCN(c3ccccc3)CC1)C2=O` here?
A: Its Potency is inconclusive [activator, single point].

Q: For `CCN(CC)CCC(=O)N1c2ccccc2Sc2ccc(C(F)(F)F)cc21`, which Potency is on record?
A: Its Potency is inconclusive [activator, single point].

Q: With `Cc1ccc(NCc2nnc(SCc3ccc(C#N)cc3)n2Cc2ccco2)c(C)c1` as the compound, how does the Potency read?
A: The Potency was “inactive”.

Q: With `COc1ccccc1OCCNC(=O)C1CCCCC1` as the compound, how does the Potency read?
A: The Potency was “inactive”.

Q: For `CN(C)CCCNc1c2c(nc3ccccc13)CCC2`, which Potency is on record?
A: The Potency was “inactive”.

Q: With `CC(C)CCOc1cccc(OCC(=O)N(C)C2CCS(=O)(=O)C2)c1` (stereo unspecified) as the compound, how does the Potency read?
A: Its Potency is inconclusive [activator, partial curve, poor fit].

Q: Which Potency does the source give for `O=C1C2C3C=CC(CC3)C2C(=O)N1c1ccc(Cl)cc1Cl` (stereo unspecified) here?
A: The Potency was “inactive”.

Q: Which Potency does the source give for `C=CCN=C(NC#N)SCC(=O)c1cccc(OC)c1` here?
A: The Potency was inconclusive [activator, single point].

Q: With `Cc1c(NC(=O)COC(=O)/C=C/c2cccc(Cl)c2)c(=O)n(-c2ccccc2)n1C` as the compound, how does the Potency read?
A: The Potency was inconclusive [activator, single point].

Q: For `O=c1c(Cc2ccccc2)c(O)ccn1Cc1ccc2c(c1)OCO2`, which Potency is on record?
A: Its Potency is inconclusive [activator, partial curve, poor fit].

Q: With `O=S(=O)(NCc1ccccn1)c1ccc(F)cc1` as the compound, how does the Potency read?
A: Its Potency is “inactive”.

Q: Which Potency does the source give for `O=C(NNC(=O)c1cc2ccccc2cc1O)Nc1ccc(Br)cc1` here?
A: The Potency was inconclusive [activator, single point].

Q: With `COc1ccccc1CN(C)C(=O)c1cc(-c2cccs2)nc2ccccc12` as the compound, how does the Potency read?
A: Its Potency is active: 18.4 µM.

Q: For `Cc1ccc(OCCOc2cccc(Br)c2)c([N+](=O)[O-])n1`, which Potency is on record?
A: The Potency was inconclusive [activator, single point].

Q: Which Potency does the source give for `Cc1cccc(C(=O)Nc2ccc(C(=O)c3ccccc3)cc2)c1` here?
A: The Potency was inconclusive [activator, single point].

Q: Which Potency does the source give for `COc1ccc(NC(=O)CN(C)C(=O)c2ccccc2CCc2ccccc2)cc1` here?
A: Its Potency is “inactive”.

Q: Which Potency does the source give for `Cc1ccc(COn2c(-c3ccc(Cl)cc3Cl)nc3ncccc32)cc1` here?
A: The Potency was inconclusive [activator, single point].

Q: Which Potency does the source give for `O=C(c1ccc(F)cc1)c1cnc(Nc2ccccc2)s1` here?
A: The Potency was inconclusive [activator, partial curve, poor fit].

Q: For `O=C(Nc1ccc2nc(-c3ccccc3)oc2c1)c1ccco1`, which Potency is on record?
A: The Potency was inconclusive [activator, single point].

Q: Which Potency does the source give for `CCOC(=O)C1CCN(c2ncnc3cc(OC)c(OC)cc23)CC1` here?
A: Its Potency is “inactive”.

Q: Which Potency does the source give for `CCN1CCN(CCNC(=O)c2ccc(/C=C3/Sc4ccccc4N(Cc4cccc(C)c4)C3=O)cc2)CC1` here?
A: The Potency was active: 6.51 µM.

Q: With `CCOc1cc(/C=C2\CN(C)C/C(=C\c3ccc(O)c(OCC)c3)C2=O)ccc1O` as the compound, how does the Potency read?
A: Its Potency is active: 0.731 µM.

Q: With `CN(C)CCNc1nc(-c2ccco2)c2c(c1C#N)CC(C)(C)OC2` as the compound, how does the Potency read?
A: Its Potency is “inactive”.

Q: With `Cc1ccc(N2C(=O)C3C4C=CC(CNC(=S)N5CCN(c6cccc(C)c6)C(C)C5)(O4)C3C2=O)cc1` (stereo unspecified) as the compound, how does the Potency read?
A: The Potency was active: 20.6 µM.

Q: Which Potency does the source give for `O=C(NCCCN1CCOCC1)c1sc2cc([N+](=O)[O-])ccc2c1Cl` here?
A: The Potency was “inactive”.

Q: With `Cn1nc(-c2ccccc2)c(N2CCCCC2)cc1=O` as the compound, how does the Potency read?
A: Its Potency is inconclusive [activator, single point].
